Measurements published in PubChem BioAssay (NCI).
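Growth conditions: 96-well plates. Treatment: test compound, 48 hours, 5 concentrations. Analysis: linear interpolation between bracketing concentrations; unreached endpoints set to highest concentration. GI50 is the concentration that inhibits growth by half. Definition used: TGI = concentration required for complete inhibition of growth.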

System: NCI-H322M lung
Assay: growth of human tumour cells (NCI), 48 h

| SMILES | GI50 | TGI |
| --- | --- | --- |
| COc1ccc(-c2nc3ccc(-c4nnc(SCC(=O)Nc5ccc(/C(C)=N\O)cc5)o4)cc3[nH]2)cc1 | 7.54 µM | 20.9 µM |
| C=C1CC[C@@H]2[C@]3(C)COC(c4cn(-c5ccccc5)nc4-c4cccc([N+](=O)[O-])c4)O[C@@H]3CC[C@@]2(C)[C@@H]1C/C=C1/C(=O)OC[C@H]1O (stereo not given in full) | 17.6 µM | > 100 µM |
| COC(=O)CCn1c(-c2ccc(-n3cc(-c4ccc(O[C@H]5O[C@@H]6OC7(C)CC[C@H]8[C@H](C)CC[C@@H]([C@H]5C)[C@@]68OO7)cc4)nn3)cc2)nc2ccccc21 | 0.436 µM | > 9.25 µM |
| O=C(Nc1nc2ccc([N+](=O)[O-])cc2s1)Nc1cc(Cl)ccc1I | 5.06 µM | 17.7 µM |
| COc1ccc(C(=O)/C=C/c2ccc(Cl)c(C(F)(F)F)c2)cc1S(N)(=O)=O | 1.77 µM | 6.52 µM |
